Laboratory results taken from the supplement of paper PMC11417369.
Some of the results follow.

Test system: PfHDP1 homeodomain (GST-tagged)
Assay: gcPBM binding intensity (ln(normalized median fluorescence intensity)); higher = stronger DNA binding
In short: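 GST-tagged P. falciparum DNA-binding domains, expressed in E. coli (about 25 μg on average), were applied for 1 h to an Agilent 4 × 180k array of primer-extended double-stranded 36-bp intergenic genomic probes plus negative controls. The binding buffer was 1× PBS with 1% milk, 0.2 mg/ml BSA, 0.5% salmon testes DNA and 0.03% Triton X-100. Bound protein was detected with Alexa488 anti-GST antibody and scanned at 488 nm. Binding intensity is the highest Masliner-normalised natural-log median intensity across replicate spots of either probe orientation.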

Sequence	gcPBM binding intensity (ln)
TTGTTTCTACAATTTAATAAAATACGTTTTCAAAAA [XGTACX_negctrl_site377]	5.99
ACAATAAAAATAAAAAGTACAAATAAAAAAAATAAA [XGTACX_site6718]	6.87
TTTGAGATAAAAGACTGTACTTAGAATGTATAAAAA [XGTACX_site203]	6.17
ATATATATATATATATGTACATAAATATTTTAAAAT [XGTACX_site4980]	9.43
TTTAATTTTATATAGAGTACAAAAAAATAGAAAGAT [XGTACX_site3870]	7.13
AAAAAAAAAAAAAACTGTACCAAAAAGAATATATAC [XGTACX_site8345]	6.51
TAAAATATAAAACACACACACATATATATATATATT [CACACA_site224]	6.75
ATCCTCTTTACAATATGTACATAAATATATATTTAT [XGTACX_site8001]	7.45
TATATATATAAATACACACACATATATATATATATA [CACACA_site4867]	9.33
TATATATTTTTATTATGTACATATTAACAATGTGTT [XGTACX_site879]	6.41
TATTTATTTATTTATTTATTTATTTATTTATATTTA [CACACA_negctrl_site398]	6.64
TATAATAATACGTATTGTACTATTAGGTTAATTCGT [XGTACX_site264]	6.22
ACTTGTAAGAAACACACACACACACCCATATATATA [CACACA_site796]	6.96
TCTATAAAGGAATATACACACATATATATATATATA [CACACA_site410]	9.4
TTTTCTTGTAAATTACGTACGAATGTGTAGAGAAAT [XGTACX_site1339]	7.1
AAGTAAAATAAGTATACACACATAAATATATATATA [CACACA_site685]	8.54
TATATATATATTTAGTGTACTTAAAAAAAATAATAA [XGTACX_site5454]	8.25
TATTTTTTTTTCCATTGTACATTTTTGATATTTTTC [XGTACX_site744]	6.75
ATAATAATAAAATATATATACAAAGGTGAAATTATA [TGCATGCA_negctrl_site197]	6.83

Sequence	gcPBM binding intensity (ln)
TTATTAAATATGTACACACGTACATTTTATAAATGA [CACACA_site2387]	6.1
TTCTTTAAAAAATTCGATAAAAAAAAAAAAAGAAAA [CACACA_negctrl_site242]	6.17
TATATACTCATGCGCACACACAAGTGGGAAATTTGG [CACACA_site5056]	7.48
GGAAAGACAGTTCACAGTACCCAGGAAATCTACGGA [XGTACX_site1996]	6.48
ATATATTATAGGTACACACACATATAAGGGATTATA [CACACA_site6154]	6.84
ATATATATATATATTGTGCACAAAAAAAAATAAGCA	10.7
ATATACATATATATTGCATGCAGAGAGTATTTATAA [TGCATGCA_site646]	7.12
CTTTGTAGTATATTAACACACAACTGTTTATAATAT [CACACA_site6038]	6.53
ATATAAGAAATAAAGAAAAATGTGTTTTTTTTTTTT [XGTACX_negctrl_site396]	6.09
TTTTTCCTAACATATTATATACTTGAATATTTATTA [CACACA_negctrl_site156]	6.18
AAACAAATATTTATCACAATGTCATTTTGTTAACAT [GTGCAC_negctrl_site171]	6.53
AGAGCTGTTTTTTATGCATGTAGTTTAGAAAATACA [TGCATGCA_site257]	6.15
TTTATCTTATTTTTATGTACTTATTTTATAAAAAAA [XGTACX_site7730]	6.97
CGTTCATATTATTATAGTACATATTATTATAGTTTT [XGTACX_site1550]	6.52
TTTTTTTTTTTATTTGCATGCGGTGTTCATAATATT [TGCATGCA_site199]	6.5
TATTTGTAAATTATTTGGGTGTGTAGGGGATATTCT [XGTACX_negctrl_site204]	7.13
TTGGTGGATAAATTTACACACAATAACTTTCGTTCA [CACACA_site6358]	6.37
AGAAGAAAAGTAAAAAGTACATTATTCATGGCCTAT [XGTACX_site5601]	5.91
TTATAATATAGCAATTATTAAATAGGATCAAATGAA [CACACA_negctrl_site632]	6.38

Sequence	gcPBM binding intensity (ln)
TTCTTTATTTATCATTATAAGAAGAGTTGATTTGTT [XGTACX_negctrl_site555]	6.23
TATAAATACTAAAAAAGTACAAAATTTCATAAAAAA [XGTACX_site2709]	6.47
ATTTTATATAATACATGTACAAAAGTTTAAATTTAT [XGTACX_site6196]	6.64
AACAAATTTATCCAAAGTACAAAATATCATTTCTTA [XGTACX_site4543]	5.98
ATTATAATTATATATGCATGTAGCATTTTCTATTTT [TGCATGCA_site66]	6.75
AACAACATGTAGACGCGTACCAACATCAGATCCTAT [XGTACX_site4071]	6.37
TATGTTCCATTTTTTGGTACACATACAATAACTGCT [XGTACX_site2256]	6.19
TTTGTATTGTGCAGATGTACATTATAATATTGGATT [XGTACX_site5033]	7.83
ATTACATACGAGCACACGTAAAAGTATAATATAAAA [GTGCAC_negctrl_site446]	6.65
TTATATATAATATATACACACACATGTATATATAAA [CACACA_site8603]	6.58
AACAAATACAAAGAATAGTCATCTGAATGGTGTTAT [GTGCAC_negctrl_site685]	6.38
TATTTCTGATTACATACACACATATACAGATATGAC [CACACA_site7490]	6.88
TATATACCTATATACACACACATATATAAATAAATA [CACACA_site7341]	6.67
ATAAATAAAATAAAAGCACACAAAATGTAAATAATT [CACACA_site8895]	6.72
AAAAAAAAAAAAAGTACACACATACCTATAAATATA [CACACA_site6937]	6.46
TTTACCTCTTCAATGGTGCAATAACTCAAAAATTTG	9.93
TTTTTATTTTATTAGTGTACTTTATATTTAACAATA [XGTACX_site1175]	6.57
TTTATTTTTATAAGAGCATGCACTGTTTAAAATGGT [TGCATGCA_site628]	9.8
